Test results from PMC12040169 (PLOS Biology, 2025).
Some of the results follow.

Each compound was assayed on T1, C. trachomatis L2/434/Bu expressing GFP (CTL2-GFP). Conditions: total inclusion area; 28.5 h, 10 µM; inhibitor.
T1 construct: L2/434/Bu GFP intracellular growth in HeLa cells
Parameters: species or system HeLa; C. trachomatis total inclusion area by high-content imaging, normalised to DMSO
Summary of the method: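 Imaging read-out: GFP inclusions and Hoechst nuclei captured by high-content imaging after fixation. Inclusion area/number = chlamydial growth; nuclei count = host cell viability. MIC calculated per earlier method.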

Row | Structure (SMILES) | % of control remaining
1 | COc1ccc(CC(=O)N2CCN(C(C)c3nc4ccccc4s3)CC2)cc1F (stereo not drawn) [CBK297733] | 90.0355
2 | COC(=O)c1ccc(N2CCN(C)CC2)c([N+](=O)[O-])c1 [CBK264341] | 108.452
3 | CN1CCC(COC(=O)Nc2cccnc2)CC1 [CBK138232] | 69.7719
4 | Cc1ccc(S(=O)(=O)Nc2nnc(C(C)C)s2)cc1 [CBK045528] | 66.3932
5 | CC(C)(C)c1ccccc1NC(=O)N(CCN)Cc1cc(F)cc(F)c1 [CBK046263C] | 81.0437
6 | CN(CC(=O)Nc1cc2ccccc2c(N2CCNCC2)n1)C(=O)c1ccccc1 [CBK028421T] | 103.905
7 | CC[C@H](Cn1c(=O)oc2ccccc21)NC(=O)Cc1cccs1 [CBK284537] | 101.207
8 | COC(=O)[C@H]1CN(C(=O)c2cn(C)nc2C)C[C@@H]1c1ccccc1F [CBK283511] | 82.357
9 | Cn1cc(-c2nccnc2OC2CCCCC2)cn1 [CBK107072] | 123.939
10 | Cc1cc(OCC(C)C)ccc1C(=O)C1=C(O)C(=O)N(Cc2cccnc2)C1c1cccnc1 (stereo not drawn) [CBK264883] | 106.434
11 | O=C(c1ccccn1)N1C2CCC1CC(O)(c1ccco1)C2 (stereo not drawn) [CBK284034] | 84.5045
12 | COc1ccc(NC(=O)CC2NC(=O)NC2=O)cc1 (stereo not drawn) [CBK267279] | 89.1746
13 | N#CCCN(Cc1ccco1)C(=O)c1cccc(NC(=O)C2CC2)c1 [CBK304014] | 83.0817
14 | Cc1ccc2nc(-c3ccc(/N=C/c4ccc(/C=N/c5ccc(-c6nc7ccc(C)cc7s6)cc5)cc4)cc3)sc2c1 [CBK261661] | 102.999
15 | CCCC/C=C/c1cnc2[nH]c(=O)n(Cc3ccc(S(N)(=O)=O)cc3)c2n1 [CBK064956] | 61.977
16 | CNC(=O)c1ccc(-c2ccccc2OC)nc1N1CCOCC1 [CBK106210] | 100.41
17 | O=[N+]([O-])c1ccc(OCCO)cc1 [CBK000628] | 101.469
18 | CC1CN(C(=O)NC(=O)c2ccc(-c3csnn3)cc2)CC(C)O1 (stereo not drawn) [CBK017091] | 111.581
19 | CCOC(=O)c1cnc2nc(N3CCOCC3)nn2c1N [CBK007371] | 0
20 | Cc1ccc(NC(=O)CSc2nc3ccccc3c(=O)n2Cc2ccco2)cc1Cl [CBK265606] | 89.3772
21 | Nc1ncnc(NCCCc2ccccc2)c1[N+](=O)[O-] [CBK267261] | 108.424

Row | Structure (SMILES) | % of control remaining
22 | CCC(Sc1ccc2nnc(-c3ccc(C)cc3)n2n1)C(=O)O (stereo not drawn) [CBK287524] | 123.76
23 | Cc1ccc(C(C)C)c(OCc2ccc(C(=O)Nc3ccc(S(N)(=O)=O)cc3C)o2)c1 [CBK265833] | 85.2141
24 | COc1ccc(O)c(CN(C)CCN(C)C)c1 [CBK261854] | 100.204
25 | O=C(COc1cccnc1)N1CCCc2ccccc21 [CBK200258] | 92.4746
26 | O=C(NCCn1cccn1)N1CCC(Cc2ccc(F)cc2)CC1 [CBK304381] | 67.9488
27 | O=c1[nH]c(=O)c2cc(S(=O)(=O)NCC3CCN(Cc4ccccc4)C3)ccc2[nH]1 (stereo not drawn) [CBK286384] | 121.552
28 | CC1CC1C(=O)N1CCCC(c2nn(C)c3ncccc23)C1 (stereo not drawn) [CBK282167] | 91.771
29 | CCc1nn(CC(=O)N2CCCC2)c(=O)c2cc3occc3n12 [CBK283748] | 78.9801
30 | O=c1[nH]c2ncc(-c3cncc4ccccc34)nc2n1CCCO [CBK064814] | 73.3097
31 | CC(C)(C)OC(=O)N1CCC(Oc2nccnc2OCc2ccc(Cl)cc2F)CC1 [CBK163968] | 54.6284
32 | O=c1ccc2ccc(-c3ccsc3)nc2[nH]1 [CBK073710] | 100.191
33 | CNC(=O)C1CCCCN1C(=O)c1cn(CCOC)c2ccccc12 (stereo not drawn) [CBK306308] | 69.1105
34 | CCn1nc(NC(=O)C2Cc3ccccc3CN2C)cc1C (stereo not drawn) [CBK282133] | 112.532
35 | CC(=O)Nc1ccc(/N=C/c2ccc(Cl)cc2)cc1 [CBK015166] | 73.5521
36 | CCc1c(C(=O)NC2CCCOC2)[nH]c2ccc(F)cc12 (stereo not drawn) [CBK283115] | 89.3593
37 | CC(C)[C@H]1CN(Cc2ccco2)CCN1Cc1ccco1 [CBK284271] | 94.6733
38 | CC(=O)Nc1cccc(CN2CCCC(CO)C2)c1 (stereo not drawn) [CBK305527] | 87.3875
39 | CC1CCC(N(CCCN)Cc2ccco2)CC1C (stereo not drawn) [CBK268947] | 94.2404
40 | CCCS(=O)(=O)NC1CC(C)(C)Cc2c1cnn2-c1ccccc1 (stereo not drawn) [CBK307265] | 90.5465
41 | COCOc1ccc(-c2nccnc2OC)cc1 [CBK106914] | 93.2906
42 | CCc1nc2c(Oc3nc4ccccc4s3)cccn2c1N(C)C(=O)C(C)C [CBK147765] | 76.4374

Row | Structure (SMILES) | % of control remaining
43 | COc1cc2c(cc1OC)C1=NNC(=O)C1=NC(C)(C)C2 [CBK288353] | 1.154
44 | O=C(c1cc(S(=O)(=O)N2CCOCC2)ccc1Cl)N1CCCC(CO)C1 (stereo not drawn) [CBK304236] | 68.1114
45 | Cc1c(-c2cc(C(F)F)n3nc(CCC(=O)O)nc3n2)cnn1C [CBK286888] | 111.253
46 | C(=C\c1nccnc1OCCc1c[nH]c2ccccc12)/c1ccccc1 [CBK106872] | 97.7882
47 | CCN(CC)c1ccc(C(=O)CN2CCN(c3nccnc3OCCN3CCOCC3)CC2)cc1 [CBK082898T] | 88.9094
48 | CC(=O)c1cccc(NC(=O)N(CCO)C2CCc3ccccc32)c1 (stereo not drawn) [CBK305517] | 21.2451
49 | COc1ccc(Sc2cc(C(F)(F)F)ccn2)cc1OC [CBK093762] | 87.6492
50 | COc1ccc(-c2c[nH]c([C@@H]3COCCN3Cc3cccc(C#N)c3)n2)cc1 [CBK289298] | 111.929
51 | O=C(CN1C(=O)c2ccccc2C1=O)Nc1sc2c(c1C(=O)NCc1ccco1)CCCC2 [CBK265670] | 98.9635
52 | Cc1ccc(C(=O)N2CN(C(=O)CN3CCOCC3)CC(C)(C)C2)cc1 [CBK039190] | 150.823
53 | Cc1cc(C)n(CCNC(=O)c2ncoc2-c2ccc(F)cc2)n1 [CBK282356] | 61.5395
54 | Cc1noc(NS(=O)(=O)c2ccc(NC(=O)/C=C/c3ccc(C(C)C)cc3)cc2)c1C [CBK265430] | 31.9524
55 | CC(C)c1nsc(NS(=O)(=O)Cc2ccccc2)n1 [CBK051188] | 79.7694
56 | O=[N+]([O-])c1ccc(S(=O)(=O)NCCSCc2cccc(Cl)c2)cc1 [CBK268066] | 104.464
57 | O=C(O)CCC(=O)N1CCCC2(CCN(Cc3ccccc3)C2)C1 (stereo not drawn) [CBK136890] | 101.179
58 | Cc1cc2occ(CC(=O)NCc3ccccn3)c2c(C)c1Cl [CBK269175] | 94.3141
59 | CCc1nc2ccc(C(=O)N3CCN(c4ccccc4)CC3)cn2c1N(C)Cc1ccc(OC)cc1 [CBK145584] | 102.22
60 | O=C(COc1ccc(I)cc1)Nc1cccnc1 [CBK263430] | 105.977
61 | O=C(O)c1cccc(NC(=O)c2cccc(S(=O)(=O)N3CCc4ccccc4C3)c2)c1 [CBK265187] | 96.0446
62 | Cn1cc(CN2C3CCC(C3)[C@@H]2COc2ccc(F)cc2)cn1 (stereo partly drawn) [CBK282257] | 94.8543
63 | O=C(NCc1ccc(Cl)cc1)c1cnc(-c2cccc(C(F)(F)F)c2)c(-c2ccncc2)c1 [CBK037607] | 111.641

Row | Structure (SMILES) | % of control remaining
64 | CCC1(O)C(C)C(c2ccc(Cl)cc2)NC(c2ccc(Cl)cc2)C1C (stereo not drawn) [CBK025376C] | 75.9126
65 | N#Cc1c(N)nc2c(c1-c1ccc(Cl)cc1)CCCCCCCCCC2 [CBK262322] | 102.559
66 | CN(C(=O)c1cc[nH]n1)C1CCN(c2ncnc3ccccc23)CC1 [CBK305916] | 82.9094
67 | COc1ccc(N2CCN(c3nc(NCCO)nc(N4CCOCC4)n3)CC2)cc1 [CBK265413] | 98.1811
68 | COc1ccc(-c2cc(-c3nnc(S)n3-c3ccccc3Cl)[nH]n2)cc1 [CBK265880] | 89.9903
69 | COc1nc2ccccc2nc1CCC(=O)NC(C)c1ccccc1 (stereo not drawn) [CBK270065] | 88.771
70 | CCN1CCN(Cc2c(C3CCCC3)[nH]c3ncccc23)CC1 [CBK285386] | 75.6665
71 | Nc1ncc(-c2ccc(C(=O)N3CCOCC3)cc2)cc1C(=O)NCCc1ccc(O)cc1 [CBK158577] | 99.3079
72 | CC(C)c1ccc(-c2cncc(NCCCN3CCOCC3)n2)cc1 [CBK065196] | 107.066
73 | FC(F)(F)c1cccc(Nc2cncc(-c3cccs3)n2)c1 [CBK065750] | 104.798
74 | CC(C)(C)c1cc(C(=O)O)[nH]n1 [CBK260874] | 96.1835
75 | COc1ccc2ccccc2c1CN1CCN(C/C=C/c2ccccc2)CC1 [CBK261899] | 77.9012
76 | CCc1nc(CN2CCOC(c3ccc(F)cc3)C2)cs1 (stereo not drawn) [CBK305090] | 105.972
77 | CN(C(=O)C1(NC(N)=O)CC1)c1nc2c(s1)CC(c1ccccc1)CC2 (stereo not drawn) [CBK306022] | 98.1273
78 | c1ccc(CSc2nnc(-c3ccco3)o2)cc1 [CBK026283] | 125.234
79 | COc1ccc(-c2n[nH]c(=S)n2CC(=O)N2CCN(c3cccc(C)c3)CC2)cc1 [CBK295352] | 120.748
80 | CC(C)n1c(=O)c2c(-c3cc(C(C)(C)C)no3)ncn2c2ccccc21 [CBK016666] | 103.173
81 | Nc1n[nH]c(=O)c2ncn([C@H]3C[C@@H](O)[C@@H](CO)O3)c12 [CBK201233] | 91.1262
